# From PubChem BioAssay (NCI)
# Values joined by “and” are separate entries in the source; they are usually repeats but may differ in a detail not shown here. Equal values may be shown once.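 Growth conditions: 96-well plates. Treatment: test compound, 48 hours, 5 concentrations. Analysis: linear interpolation between bracketing concentrations; unreached endpoints set to highest concentration. Abbreviation: GI50, concentration required for 50% inhibition of growth. TGI is the concentration that stops growth completely.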
# Tested on: NCI-H322M lung
# Assay: NCI anticancer screen, dose series, 48 h
SMILES,TGI,GI50 [µM]
COc1cccc(NC(=O)C(=O)C2C=CCS2(=O)=O)c1 (configuration not stated),> 100 µM,–
CCCNC(=O)N(C)C(=O)N1N=C(c2ccccc2)C1c1ccccc1 (configuration not stated),> 100 µM,–
Nc1c(F)cc(-c2nc3cc(F)ccc3[se]2)cc1Br,> 100 µM,0.315
Nc1ccc(Sc2c3ccccc3nc3ccccc23)cc1,55.8 µM,–
Cc1ccc(NC(=O)OCC(COc2ccc(Cl)cc2Cl)OC(=O)Nc2ccc(C)cc2)cc1 (configuration not stated),> 100 µM,–
COc1cc2ccc1OCc1cccc(n1)COc1ccc(cc1OC)C=NCCNCCN=C2,> 100 µM,–
CCCN1CCC(c2ccc(Nc3nc(Nc4cc(F)ccc4C(N)=O)c4cc[nH]c4n3)c(OC)c2)CC1,7.39 µM,0.377
O=C1c2ccccc2C(=O)c2c(NCCCN3CCOCC3)ccc(NCCCN3CCOCC3)c21,34.6 µM,–
N/C(=N\S(=O)(=O)c1cc(Cl)c(Oc2ccc([N+](=O)[O-])cc2Cl)c(Cl)c1)Nc1ccc(Cl)cc1,33.1 µM,–
Cc1ccc(OCC2OC(n3cnc4c(Br)nc(Br)nc43)CC2Oc2ccc(C)cc2)cc1 (configuration not stated),21.8 µM and 13.3 µM,11.3
O=P(O)(CN1CCN(CP(=O)(O)c2ccccc2)CCN(CP(=O)(O)c2ccccc2)CC1)c1ccccc1,> 100 µM,–
CCN=C(C#N)NCC,> 100 µM,–
COC1/C=C/C(C)C(C(C)C(OC)C(C)CCC(=O)C(C)C(CC(=O)O)OC)OC(=O)/C=C/C=C(\C)CC(OC)CC2=CC(=O)O[C@H](C2)C(C)C(OC)CC(OC)/C=C/C(C)C(OC)C1 (some centres not stated),> 4.35 µM,–
C#Cc1cccc(NC(=O)c2ccc(NC(=O)CCl)cc2)c1,> 82.5 µM,> 82.5
CC1C2CC=CC(=O)[C@@]2(C)CCC12OCCO2 (some centres not stated),> 100 µM,–
CCCCC(=O)Nc1ccc2c(C)cc(-c3ccc(-c4cc(-c5ccc(C)cc5)cc(-c5ccc(-c6cc(C)c7ccc(NC(=O)CCCC)nc7n6)cc5)n4)cc3)nc2n1,> 100 µM,–
C=C1Cc2cc(OC)c(OC)c(OC)c2-c2ccc(SC)c(=O)cc21,1.86 µM,–
CC(C)CCCC(C)[C@H]1CC[C@H]2N=C(NCc3ccccc3)CCC[C@]12C (some centres not stated),5.68 µM,–
COC1CC(O[C@H]2CC[C@@]3(C)[C@@H](CC[C@]4(O)[C@@H]3CC[C@]3(C)[C@@H](C(C)=O)[C@H](OC(=O)CC(C)C)[C@@H](OC(=O)c5ccccc5)[C@@]34O)C2)OC(C)C1OC1CC(OC)C(OC2OC(C)C(O)C(OC)C2O)C(C)O1 (some centres not stated),> 25 µM,–
COc1ccc2c(c1OC(C)=O)C1=CC(=O)CCC13CCNC3C2 (configuration not stated),> 100 µM,–
CCN(CC)CCn1c2ccccc2c(=O)c2c(OC)ccc(OC)c21,> 100 µM,–
COc1cc(C=O)cc(O)c1O,> 100 µM,–
NC(Cc1ccc(B(O)O)cc1)C(=O)NC(CO)CO (configuration not stated),> 100 µM,–
CC(=O)OCC1OC(n2nc(Cc3ccccc3)c(=S)[nH]c2=S)C(OC(C)=O)C(OC(C)=O)C1OC(C)=O (configuration not stated),71.2 µM,–

SMILES,TGI,GI50 [µM]
CN(C)c1ccc2nc(CC(O)(C(F)(F)F)C(F)(F)F)ccc2c1,> 10 µM,–
CC[C@H](C)[C@H](NC(=O)[C@@]1(O)[C@H](O)[C@]2(CC)C=CCN3CC[C@@]4(c5cc(Br)c(OC)cc5N(C)[C@@H]14)[C@@H]32)C(=O)OC,> 100 µM,–
Cc1csc(NNC(=O)Nc2ccccc2)n1,> 100 µM,–
COc1cccc(/C=C\c2ccc(O)cc2)c1,> 100 µM,–
C=C(CCCO)[C@@H]1CC[C@@](C)(O)[C@H]1C,> 100 µM,–
CCCNC(=O)N1CC(CN2CCN(c3ccccc3)CC2)O/C1=N/C(=O)Nc1ccccc1 (configuration not stated),> 100 µM,–
C/C(=N/N=C(N)N)c1ccc(NC(=O)Nc2ccc(/C(C)=N/N=C(N)N)cc2)cc1,> 94 µM,36.1
CC(=O)/C(C=Nc1c(C)n(C)n(C)c1=O)=C(/O)c1ccccc1,> 50 µM,–
CC(O)[C@@]1(c2ccccc2)CC2(CCN(C)CC2)O[C@H]1C (some centres not stated),> 100 µM,–
O=[N+]([O-])C(=C/c1cccs1)/C(=C\c1cccs1)[N+](=O)[O-],5.87 µM,–
Cc1ccc(N=C2C(c3ccccc3)=C(SC3=C(c4ccccc4)C(=Nc4ccc(C)cc4)c4ccccc43)c3ccccc32)cc1,> 100 µM,–
CCOP1(=O)C=C(C)C(=C(Cl)Cl)C(C)=C1 (configuration not stated),65.4 µM,–
O=c1oc2ccc3ccccc3c2cc1-c1nc2ccc([N+](=O)[O-])cc2o1,> 100 µM,–
COc1ccc(/C=C2\c3cc(OC)c(OC)c(OC)c3CC[C@@H]2O)cc1F,> 100 µM,0.544
O=c1c2c(c1=O)-c1ccccc1CN2,> 100 µM,–
Cc1nccc2c3ccc(OCc4cn(-c5ccc(Cl)cc5)nn4)cc3n(CC(C)C)c12,> 33.3 µM,10.9
CCO/C(Cc1ccc(Cl)cc1)=N/NC(N)=S,> 100 µM,–
COc1cc(/C=C2\C[C@H]3[C@@H]4CC=C5C[C@@H](OC(C)=O)CC[C@]5(C)[C@H]4CC[C@]3(C)[C@H]2OC(C)=O)ccc1OCCN1CCCC1,16 µM,8.1
COc1cccc(-c2c(-c3ccccc3)[nH]c(C)c2C(=O)ONC(=O)c2ccccc2)c1,23.8 µM,–
O=c1oc2ccc([N+](=O)[O-])cc2cc1Br,> 100 µM,–
COC(=O)C1C=CCON2CCc3c(n(S(=O)(=O)c4ccccc4)c4ccccc34)C12 (configuration not stated),> 100 µM,–
C[Si](C)(C)C(Sc1ccccc1)(Sc1ccccc1)Sc1ccccc1,> 100 µM,–
CC1CC[P+](c2ccccc2)(c2ccccc2)CC1,> 100 µM,–
COc1cc(/C=C/C(=O)c2c(C)nc3ccccc3c2C)ccc1OCCCN1CCN(C(=O)c2ccco2)CC1,26.8 µM,13.5

SMILES,TGI,GI50 [µM]
CCCCCCCC(=O)[O][Hg][CH2]C1COC([CH2][Hg][O]C(=O)CCCCCCC)CO1 (configuration not stated),31.6 µM,17.7
COC(=O)/C(C#N)=C(\N)c1c(C)c2ccccc2oc1=N,> 100 µM,–
C=CCc1c(O)c(C(=O)/C=C/c2ccccc2)c(OC)c2ccoc12,11.2 µM,3.19
COC1C(O)C(C)OC(OC2CCC3(C)C(CCC4C3C(O)CC3(C)C(C5=CC(=O)OC5)CCC43O)C2)C1O (configuration not stated),1.42 µM,–
[CH3][Sn]([CH3])([CH3])[O][N+](=O)[O-],> 10 µM,> 10
O=C(NCCCN1CCN(CCCNC(=O)Nc2cccc3ccccc23)CC1)Nc1cccc2ccccc12,31.6 µM,–
COC(=O)C1=C(CCC[C@H](C)O[Si](C)(C)C(C)(C)C)NC(=O)N2[C@@H](CCO)CC[C@H]12,31.6 µM,–
COc1ccc(-c2cc(=O)c3c(O)cc(O)cc3o2)c(OC)c1OC,> 100 µM,–
CC1(C)OC(=O)C(Cc2ccccc2)(Cc2ccccc2)C(=O)O1,> 100 µM,–
COC(=O)C(=O)C(C(=O)C(=O)Nc1cc(C)ccc1C)c1nc2ccc(C(=O)c3ccccc3)cc2[nH]c1=O (configuration not stated),> 100 µM,–
O=C(O)CCC(C(=O)O)N1C(=O)C2C3CCC(C3)C2C1=O (configuration not stated),> 100 µM,–
COCc1c(-c2ccc(NC(=O)Nc3cc(C(F)(F)F)ccc3F)c(F)c2)c2c(N)ncnn2c1CN1CCOCC1,8.03 µM,1.78
COc1ccc(/C=C/C(=O)c2ccc(OC(=O)/C=C/c3ccccc3)cc2)cc1,99.4 µM,–
[O-]c1c2c(nn1-c1ccc(Cl)cc1)c1ccccc1c[n+]2Cc1ccccc1,> 100 µM,–
CC(C)C1N2CCCCC2[C@@H]2c3[nH]c4ccccc4c3CCN12 (some centres not stated),> 100 µM,–
CN(C)CCOC(=O)Nc1nc2ccc(Sc3ccccc3)cc2[nH]1,24.1 µM,10.3
Cn1c(N=P(c2ccccc2)(c2ccccc2)c2ccccc2)c([N+](=O)[O-])c(=O)n(C)c1=O,> 100 µM,–
CCOC(=O)CNc1nnnn1C1OC(CO)C(O)C1O (configuration not stated),> 100 µM,–
C[CH2][Sn]([CH2]C)([O]C(=O)c1ccc(OC)c(OC)c1OC)[O]C(=O)c1ccc(OC)c(OC)c1OC,> 100 µM,> 100
COc1cccc(Nc2nccc(-c3cnn4ncccc34)n2)c1,> 20.7 µM,0.0799
COC(=O)C1=NN2c3ccccc3CN([C@@H](C)c3ccccc3)C(=O)[C@@H]2[C@H]1c1ccccc1,> 100 µM,–
COc1ccc(OC)c(/C=C/c2nc(SCc3ccccc3)n(-c3ccc(Cl)cc3)n2)c1,88.2 µM,11
O=c1c(Cl)cc2nc3ccccc3sc-2c1Cl,30.5 µM,–
Cn1c(=O)c(Cl)c(N=[N+]=[N-])c2ccccc21,> 100 µM,–

SMILES,TGI,GI50 [µM]
C[C@@H](Oc1cc(-n2cnc3ccc(OC[C@@H](O)CO)cc32)sc1C(N)=O)c1ccccc1Cl,> 25 µM,8.63
Cc1cc(=O)oc2cc(OC/C=C3\CCC(=O)O3)ccc12,> 92 µM,33.3
Cc1cc2nc(N3C(=O)/C(=C/c4ccc(N(C)C)cc4)N=C3c3ccccc3)sc2cc1C,> 100 µM,–
FC(F)(F)c1cc(Nc2ccc3cc(OCCCN4CCOCC4)ccc3n2)ccc1Cl,7.53 µM,2.53
CC1=NN(c2nc(N)nc(/C(C#N)=C\c3cccc([N+](=O)[O-])c3)n2)C(C)(C)C1,> 100 µM,–
COC1=CC(=O)C2=C(C[C@@]3(C)C(=C2)C(CO)=CC[C@H]3O)C1=O,> 100 µM,–
CC1C(c2ccccc2O)c2cc3c(cc2OC1N1CCOCC1)OCO3 (configuration not stated),> 100 µM,–
CNC(=O)NS(=O)(=O)c1ccc(C)cc1,> 100 µM,–
O=C1/C(=C/c2ccc(Cl)cc2)CSC/C1=C\c1ccc(Cl)cc1,24.5 µM,–
COc1cc2c[n+](C)c3c4cc(OC)c(OC)cc4ccc3c2cc1OC,> 100 µM,–
CN(C)CCNC(=O)NC[C@H]1CC[C@@H]2[C@H](O1)c1cc(C(F)(F)F)ccc1N[C@H]2c1ccccc1,> 41 µM,0.0948
O=C1C2C3C=CC(C2C(=O)N1CN1CCSCC1)C1C2C(=O)N(CN4CCSCC4)C(=O)C2C31 (configuration not stated),> 100 µM,–
O=[N+]([O-])c1cc2c([N+](=O)[O-])cccc2o1,37.5 µM,–
C1CN2CCNCCN(CCN1)CC2,> 100 µM,–
O=Nc1c(O)cc(Nc2cccnc2)c2ccccc12,> 100 µM,–
CN(CCCn1ccnc1[N+](=O)[O-])CCCn1ccnc1[N+](=O)[O-],> 100 µM,–
Cc1cc(Cl)cc(Cc2cc(Cl)cc(C)c2O)c1O,16.7 µM,3.89
O=C1C=CC2(C=C1)C[C@H](NC(=O)OCc1ccccc1)C(=O)O2,> 72.1 µM,–
CCCCN(CCCC)CCCn1cnc2ncccc2c1=O,> 100 µM,–
O=c1c([OH2+])c(-c2ccc(O)cc2[O-])oc2cc(O)cc([O-])c12.O=c1c([OH2+])c(-c2ccc(O)cc2[O-])oc2cc(O)cc([O-])c12.[Ti+4],> 100 µM,–
CCCCOC(=O)c1cc(C(=CCC[C@H]2CC[C@@]3(C)[C@@H](CC[C@@H]4[C@@H]3CC[C@]3(C)[C@@H](C(C)CCCC(C)C)CC[C@@H]43)C2)c2cc(Cl)c(O)c(C(=O)OCCCC)c2)cc(Cl)c1O (some centres not stated),> 50 µM,–
c1ccc([P+](c2ccccc2)(c2ccccc2)C2c3ccccc3-c3ccccc32)cc1,6.65 µM,–
CCCCCCCCC/C=C1/CC(CO)(COC(=O)c2ccccc2)OC1=O (configuration not stated),37.3 µM,–
